Laboratory results: the supplement of paper PMC7726561
Over roughly 1,400 sequences, “thermal melting temperature (Tm) of peptide-HLA complex” has its median near 60; the lowest 2% begin near 45. The list shows a part of the results.

B1: unnamed (peptide)
chain: LPFKYPAVL
B2: unnamed (peptide)
chain: VPNWHRDLV
B3: unnamed (peptide)
chain: EPAPASVTAL
B4: unnamed (peptide)
chain: HPHAVNEIAL
B5: unnamed (peptide)
chain: APAQLPLVL
B6: unnamed (peptide)
chain: SPNGTIRNIL
B7: unnamed (peptide)
chain: APHDYGLIL
B8: unnamed (peptide)
chain: QPIPFPKEAL
B9: unnamed (peptide)
chain: APQPAQVAL
B10: unnamed (peptide)
chain: AARAVTGVL
B11: unnamed (peptide)
chain: VVRIITSEL
B12: unnamed (peptide)
chain: APWSREAVL
B13: unnamed (peptide)
chain: SPLVSRLTL
B14: unnamed (peptide)
chain: SPYLPRGDPVL
B15: unnamed (peptide)
chain: SPRGAGYL
B16: unnamed (peptide)
chain: SPSKENIASVL
B17: unnamed (peptide)
chain: IPQKQREITL
B18: unnamed (peptide)
chain: TPSPARPAL
B19: unnamed (peptide)
chain: RPALPALLV
B20: unnamed (peptide)
chain: RPLYKNIVL
B21: unnamed (peptide)
chain: VIAPVRAVL
B22: unnamed (peptide)
chain: HPFLQRQQL
B23: unnamed (peptide)
chain: IPSGKRALI
B24: unnamed (peptide)
chain: APINFTSRL
B25: unnamed (peptide)
chain: RPRPGNILL
B26: unnamed (peptide)
chain: GPKPGGGPGL
B27: unnamed (peptide)
chain: KPRVTPVEVM
B28: unnamed (peptide)
chain: RPWSETIKL
B29: unnamed (peptide)
chain: RPSPPVQSV
B30: unnamed (peptide)
chain: KASLRELAL
B31: unnamed (peptide)
chain: LPLAHVLEL
B32: unnamed (peptide)
chain: MPSASRVILL
B33: unnamed (peptide)
chain: LPFRGSGTAI
B34: unnamed (peptide)
chain: SPRISPATTL
B35: unnamed (peptide)
chain: APALPGPQF
B36: unnamed (peptide)
chain: APSAAKLLVQL
B37: unnamed (peptide)
chain: IPRGVNVSAL
B38: unnamed (peptide)
chain: RPIGIGVQGL
B39: unnamed (peptide)
chain: SPRSTFLLAF
B40: unnamed (peptide)
chain: IPRNTVVPT
B41: unnamed (peptide)
chain: RPPSFTPHTL
B42: unnamed (peptide)
chain: RPKPPSATSI
B43: unnamed (peptide)
chain: IPYTGPFNLL
B44: unnamed (peptide)
chain: VPRIQPQSL
B45: unnamed (peptide)
chain: YPMPELGRAL
B46: unnamed (peptide)
chain: SPFNDRFPL
B47: unnamed (peptide)
chain: APRTVLLLLSA
B48: unnamed (peptide)
chain: IPRPGEVLGL
B49: unnamed (peptide)
chain: FPMGDRLYI
B50: unnamed (peptide)
chain: IPWTPPGTAL
B51: unnamed (peptide)
chain: IPNWARQDL
B52: unnamed (peptide)
chain: KPAPPFNVTV
B53: unnamed (peptide)
chain: GPHVPFTVF
B54: unnamed (peptide)
chain: KPGMKLTEL
B55: unnamed (peptide)
chain: YPPNPWREI
B56: unnamed (peptide)
chain: YPRTGGTL

Target: HLA-B*07:02
Assay: thermal melting temperature (Tm) of peptide-HLA complex; higher = more thermostable pHLA complex
Details: C1R-B*07:02
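Also: cell lysates heated 10 min at 37–73 °C, remaining pHLA pulled down with pan-class I antibody, peptides quantified by DIA-MS versus 37 °C, Tm where half the complex is lost.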

| Sequence | thermal melting temperature |
| --- | --- |
| B1 | 61.5 °C |
| B2 | 58.3 °C |
| B3 | 56.6 °C |
| B4 | 57.5 °C |
| B5 | 63.3 °C |
| B6 | 60.5 °C |
| B7 | 62 °C |
| B8 | 60.7 °C |
| B9 | 58.9 °C |
| B10 | 60.7 °C |
| B11 | 58.6 °C |
| B12 | 62.2 °C |
| B13 | 61.4 °C |
| B14 | 59.8 °C |
| B15 | 54.2 °C |
| B16 | 60.2 °C |
| B17 | 59.1 °C |
| B18 | 62.5 °C |
| B19 | 62.4 °C |

| Sequence | thermal melting temperature |
| --- | --- |
| B20 | 60.7 °C |
| B21 | 59.2 °C |
| B22 | 53.5 °C |
| B23 | 61.6 °C |
| B24 | 60.9 °C |
| B25 | 60 °C |
| B26 | 55 °C |
| B27 | 55.8 °C |
| B28 | 55.5 °C |
| B29 | 56.9 °C |
| B30 | 55 °C |
| B31 | 62 °C |
| B32 | 62.7 °C |
| B33 | 58 °C |
| B34 | 60.5 °C |
| B35 | 64.8 °C |
| B36 | 62.1 °C |
| B37 | 62.5 °C |
| B38 | 58.7 °C |

| Sequence | thermal melting temperature |
| --- | --- |
| B39 | 62.1 °C |
| B40 | 57.1 °C |
| B41 | 58.7 °C |
| B42 | 58.2 °C |
| B43 | 60.7 °C |
| B44 | 60.4 °C |
| B45 | 61.7 °C |
| B46 | 62.2 °C |
| B47 | 62.3 °C |
| B48 | 61.5 °C |
| B49 | 63 °C |
| B50 | 61.6 °C |
| B51 | 62 °C |
| B52 | 61.7 °C |
| B53 | 62.3 °C |
| B54 | 46.7 °C |
| B55 | 59.3 °C |
| B56 | 55.6 °C |
